Test results as given in PubChem BioAssay AID894 (National Center for Advancing Translational Sciences (NCATS), 2007).
Hit rate of the full screen: of about 150,000 compounds, about 6,500 (4.3%) were called active. The shares of active, inactive and inconclusive entries below differ from those in the screen. The call rests on the fitted dose curve; in most records, active means well fitted inhibition curve with a large enough effect (not every such curve was filed as active); inconclusive means small, poorly fitted or top-dose-only effect, or another doubt; inactive means no such curve, though single readings can be large or run the other way. Potencies of inconclusive entries are doubtful fits and often do not repeat.

These compounds were tested against 15-hydroxyprostaglandin dehydrogenase [NAD(+)] (Homo sapiens) (UniProt P15428) (assay: qHTS Assay for Inhibitors of HPGD (15-Hydroxyprostaglandin Dehydrogenase)). Conditions: purified HPGD, NADH fluorescence kinetic, PGE2 substrate; activity change, negative = inhibition: stronger effect = lower value.
UniProt P15428, sequence (P15428 whole entry, looked up): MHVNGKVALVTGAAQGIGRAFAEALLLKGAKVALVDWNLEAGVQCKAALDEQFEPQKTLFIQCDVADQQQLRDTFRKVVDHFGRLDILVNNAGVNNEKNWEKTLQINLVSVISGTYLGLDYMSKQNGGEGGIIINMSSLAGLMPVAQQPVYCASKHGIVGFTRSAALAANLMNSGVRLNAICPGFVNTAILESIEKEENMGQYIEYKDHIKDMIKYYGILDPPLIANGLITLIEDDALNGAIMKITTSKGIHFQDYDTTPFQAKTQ
Summary of the method: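 20 nM HPGD preincubated 15 min at room temperature with compound in 50 mM Tris-HCl pH 8, 0.01% Tween 20. Started with 1 mM NAD+ and 30 uM prostaglandin E2; NADH fluorescence (360/450 nm) read 5 times over 30-s intervals, last minus first.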
On the % scale 0 is the no-effect control and ±100 the full control effect; potency means the concentration at half of the fitted maximal effect; tags describe the fitted curve by direction and shape.

Potency, inconclusive:
O=C(COc1ccc2c3c(c(=O)oc2c1)CCC3)c1ccc2c(c1)OCO2 14.1 µM [inhibitor, partial curve]
CC(C)(C)c1ccc(C(=O)CSc2n[nH]c(=O)[nH]c2=O)cc1 20 µM [inhibitor, single point]
CCOC(=O)c1sc2nc(CSCC(=O)OCc3ccc(C(=O)OC)o3)[nH]c(=O)c2c1C 25.1 µM [inhibitor, partial curve]
Cc1cc2ncc(-c3ccc(Cl)cc3)c(N)n2n1 35.5 µM [inhibitor, partial curve]
O=c1c(-c2nc3ccccc3s2)cccn1Cc1ccccc1 31.6 µM [inhibitor, partial curve]
C=CCOc1ccccc1C1C2=C(CC(C)(C)CC2=O)Nc2c1c(=O)n(C)c(=O)n2C (centres undefined) 35.5 µM [inhibitor, single point]
O=C(Nc1cccc(-c2nc3cccnc3s2)c1)C1c2ccccc2Oc2ccccc21 25.1 µM [inhibitor, partial curve]
COC(=O)c1sc(NC(=O)C2c3ccccc3Oc3ccccc32)c(C(=O)OC)c1C 31.6 µM [inhibitor, partial curve]
Cc1ccc(C(=O)Oc2ccc(C(=O)COC(=O)C3CC(=O)N(Cc4ccco4)C3)cc2)cc1 (centres undefined) 12.6 µM [inhibitor, partial curve, poor fit]
O=C1c2ccccc2NC(c2ccc(O)cc2)N1Cc1ccco1 (centres undefined) 31.6 µM [inhibitor, partial curve]
O=C(c1cc2nc(-c3ccco3)cc(C(F)(F)F)n2n1)N1CCc2ccccc2C1 8.91 µM [inhibitor, partial curve]
O=C(CN1CCCCC1)Nc1ccc(NC(=O)c2ccc(Cl)cc2)cc1Cl 31.6 µM [inhibitor, partial curve]
COCCCn1c(=NC(=O)c2ccncc2)c(C#N)cc2c(=O)n3cccc(C)c3nc21 28.2 µM [inhibitor, partial curve]
COc1ccc(-c2oc3ncn(Cc4ccco4)c(=N)c3c2-c2ccc(OC)cc2)cc1 39.8 µM [inhibitor, single point]
O=C(CCCn1c(=S)[nH]c2ccccc2c1=O)NCc1ccco1 25.1 µM [inhibitor, partial curve]
Cc1cc(-c2ccc(F)cc2)nc2cc(C(N)=O)nn12 22.4 µM [inhibitor, partial curve]
O=c1c(-c2ccc(F)cc2)coc2cc(O)ccc12 28.2 µM [inhibitor, partial curve]
c1ccc(-c2csc3ncn4nnnc4c23)cc1 31.6 µM [inhibitor, single point]
CCOC(=O)c1c(-c2cccs2)csc1NC(=O)C(C)(C)C 35.5 µM [inhibitor, partial curve]
CCCn1c(/C=C/c2ccccc2)nc2ccccc21 28.2 µM [inhibitor, partial curve]
CCn1c(/C=N/n2cnnc2)nc2ccccc21 25.1 µM [inhibitor, partial curve]
Oc1cc(-c2ccccc2)c2ccccc2c1 35.5 µM [inhibitor, single point]
CN(C)c1ccc(-c2nc3ccccc3n2C)cc1 28.2 µM [inhibitor, partial curve]
Cc1cc(=O)oc2cc(OCc3ccc(C(=O)N4CCN(c5ccccc5)CC4)cc3)ccc12 25.1 µM [inhibitor, partial curve]
CCC(C)OC(=O)C1=C(C)NC2=C(C(=O)C(C(=O)OC)C(C)C2)C1c1ccc(N(C)C)cc1 (centres undefined) 25.1 µM [inhibitor, single point]
COc1ccc(Nc2cc(C(=O)NCCCN3CCN(C)CC3)c3ccccc3n2)cc1OC 31.6 µM [inhibitor, single point]
O=C1C(=O)c2ccccc2C(O)=C1C(CCc1ccccc1)C1=C(O)c2ccccc2C(=O)C1=O 3.98 µM [inhibitor, partial curve]
Cc1cccc(CNc2ccnc(-c3ccoc3)n2)c1 11.2 µM [inhibitor, partial curve]
Nc1c(C(=O)Nc2ccc(Cl)cc2)oc2ccccc12 3.16 µM [inhibitor, full curve]
O=C(Nc1ccc(/C=C/c2nc3ccccc3o2)cc1)c1c(F)cccc1F 10 µM [inhibitor, partial curve]
Cc1cc(=O)n2[nH]c(-c3ccc(Cl)cc3)cc2n1 28.2 µM [inhibitor, partial curve]
C=CCn1cnc2c(c1=O)c1nc3ccccc3nc1n2Cc1ccccc1 22.4 µM [inhibitor, partial curve]
CCOC(=O)Cc1csc(SCC(=O)NC2CCCCC2)n1 28.2 µM [inhibitor, single point]
O=c1[nH]c2cc3c(cc2cc1C(c1nnnn1C1CCCC1)N1CCSCC1)OCCO3 (centres undefined) 20 µM [inhibitor, partial curve]
CCOC(=O)C1=C(C)Nc2nc3ccccc3n2C1c1ccccc1 (centres undefined) 22.4 µM [inhibitor, partial curve]
Cc1ccc(-n2cccc2C(=S)N=P(N(C)C)(N(C)C)N(C)C)cc1 25.1 µM [inhibitor, single point]

Potency, active:
C=CCc1cc(C(=O)N2CCCCC2)ccc1O 3.98 µM
O=C(NCCSc1c[nH]c2ccccc12)c1ccco1 15.8 µM
COCCNC(=O)COc1ccc(C)c(C)c1 20 µM
O=C1CCCC(O)=C1C(C#Cc1ccccc1)C1=C(O)CCCC1=O 3.98 µM
O=C(Cn1nnc(-c2ccccc2F)n1)Nc1ccc(S(=O)(=O)NC2CCCC2)cc1 7.08 µM
N#Cc1nc(Cc2ccccc2)oc1NCc1ccccc1 14.1 µM
O=C(CCSc1ccccc1)NCC1CCCO1 (centres undefined) 15.8 µM
O=C1CN(C(=O)CSc2nc(-c3ccc(Cl)cc3)cs2)c2ccccc2N1 12.6 µM
c1ccc(CSc2nnc(-c3ccco3)c(-c3ccco3)n2)cc1 4.47 µM
COC(=O)CNC(=O)[C@@]1(C)C=C[C@@H](Cc2ccccc2)N1C(C)=O 10 µM
Cc1noc(NS(=O)(=O)c2ccc(NC(=O)CSc3nc4c(cc3C#N)CCCCC4)cc2)c1C 28.2 µM
Cc1nn(-c2ccccc2)c(N)c1Sc1ccc([N+](=O)[O-])cc1 20 µM
CCCCN(C)C(=O)c1sc2ncn(CC)c(=O)c2c1C 15.8 µM
CC(C)COC(=O)n1ccc(C(=O)N2CCCCC2)n1 10 µM
Cc1ccc(NC(=O)CSCC(=O)NC2CCCCC2)cc1 15.8 µM
COc1ccc(C=O)cc1COc1ccc(F)cc1F 31.6 µM
CCCCCCC(=O)N(O)C1CC(=O)N(Cc2ccccc2)C1=O (centres undefined) 17.8 µM
Nc1c(S(=O)(=O)O)cc(Nc2ccc(Nc3nc(Cl)nc(Nc4ccc(S(=O)(=O)O)cc4)n3)c(S(=O)(=O)O)c2)c2c1C(=O)c1ccccc1C2=O 15.8 µM
Cc1ccc(S(=O)(=O)/C=C\C#N)cc1 3.55 µM

Activity change, negative = inhibition, inactive:
NNC(=O)c1cc2c(s1)CCCCCC2 -3.6%
CC(C)Oc1cccc(C(=O)NC(=S)NCc2cccnc2)c1 -12.8%
Nc1ccn(-c2ccccc2)c(=O)c1 0.578%
Cc1nc(CNS(=O)(=O)c2cc(C)c(C)cc2C)cs1 -8.88%
CC(=O)Nc1ccc(NC(=S)NC(=O)c2ccc([N+](=O)[O-])cc2)cc1 -19.5%
Cc1cc(C)c2c(=O)[nH]n(C(C)C)c2n1 -18.2%
CC(NC(=O)COC(=O)C1CCN(S(=O)(=O)c2ccccc2C(F)(F)F)CC1)c1ccccc1 (centres undefined) -6.33%
COc1ccc(S(=O)(=O)NCCOc2ccccc2)cc1OC -8.62%
O=C1C2CC=CCC2C(=O)N1c1n[nH]c(-c2ccccc2)n1 (centres undefined) 3.51%
O=C(N/N=C/c1ccc(Sc2nc3ccccc3s2)c([N+](=O)[O-])c1)c1ccccn1 -13.4%
COc1cc(-c2[o+]c3cc(O)cc(O)c3cc2O)cc(O)c1O -10.6%
COc1ccc(NC(=S)NC(NC(=O)c2cccc(Cl)c2)C(Cl)(Cl)Cl)c([N+](=O)[O-])c1 (centres undefined) -12.5%
CN1CCN(S(=O)(=O)c2cccc(C(=O)Nc3sc4c(c3-c3nc5ccccc5[nH]3)CCCC4)c2)CC1 -16.4%
COc1ccc(N2C(=O)C(Cl)=C(N(CCO)Cc3ccccc3)C2=O)cc1 -6.98%
COc1cc(S(=O)(=O)N2CCCCC2)ccc1NC(=O)c1ccc(F)cc1 9.77%
C/C(=C\c1ccccc1)CN1CCC(C(=O)N2CCC(C)CC2)CC1 -6.71%
COc1ccccc1-c1nc2s/c(=C\c3cccs3)c(=O)n2n1 -7.92%
O=C(NC(=S)Nc1ccc2c(c1)OCCO2)c1ccccc1 -15.6%
COC(=O)c1cc(=O)n(CCc2ccccc2)c(=Nc2ccc(F)cc2)s1 -9.25%
